Source: PubChem BioAssay AID1240 (Sanford-Burnham Center for Chemical Genomics, 2008)
In all, about 50,000 compounds went through this assay and about 800 (1.6%) showed an effect of 50% or more. This is one part of the list.

target: Bcl-2-like protein 10 (Homo sapiens) (UniProt Q9HD36); test: Phenotype converters, Bcl-B/TR3 peptide binding displacement, primary biochemical FP (AID 1240); conditions: GST-Bcl-B / FITC-TR3 peptide fluorescence polarization; stronger effect = higher value; compound at 3.75 mg/L;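 also: 0% = Bcl-B with tracer peptide and DMSO and 100% = tracer peptide lacking Bcl-B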
UniProt Q9HD36, sequence (Q9HD36 whole entry, looked up): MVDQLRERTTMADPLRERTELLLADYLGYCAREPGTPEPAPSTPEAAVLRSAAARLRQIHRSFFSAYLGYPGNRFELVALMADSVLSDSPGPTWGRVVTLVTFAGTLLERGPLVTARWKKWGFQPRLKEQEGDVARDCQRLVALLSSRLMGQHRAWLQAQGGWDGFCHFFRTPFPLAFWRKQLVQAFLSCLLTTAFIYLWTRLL

| Compound | displacement |
| --- | --- |
| CCc1cccc(C)c1NS(=O)(=O)c1ccc(F)cc1 | 0% |
| O=C(Nc1cc(C(F)(F)F)cc(C(F)(F)F)c1)c1c(F)cccc1F | -16.7% |
| Cc1ccc(/C=C2\C=C(c3ccc(Cl)cc3)OC2=O)o1 | 22.1% |
| Oc1ccc(Nc2nc(Nc3ccc(O)cc3)nc(N3CCOCC3)n2)cc1 | -4.2% |
| CCOc1ccc(Nc2nc(-c3cccnc3)cs2)cc1 | 14.9% |
| O=C(/C=C/c1ccc(F)cc1)NC(=S)Nc1ccccc1Cl | -7.4% |
| COc1ccc(C(=O)N2CCN(C(=O)c3ccc([N+](=O)[O-])cc3)CC2)cc1OC | -8.4% |
| CC(C)=CC/C=C1\CCC2C(=O)N(c3ccccc3)C(=O)C2C1 (configuration not stated) | -1.6% |
| C=CCN=C(C)C1=C(O)c2ccccc2C1=O | -4% |
| COc1cc(/C=c2\sc3n(c2=O)C(c2c(OC)ccc4ccccc24)C(C(C)=O)=C(C)N=3)cc(OC)c1OC (configuration not stated) | 14.2% |
| COc1cc(-c2noc(-c3ccc([N+](=O)[O-])cc3)n2)cc(OC)c1OC | 10.2% |
| O=C1c2cccc3cccc(c23)C(=O)N1CC1CCN(S(=O)(=O)c2ccccc2)CC1 | 5.8% |
| O=C1C2C3C=CC(CC3)C2C(=O)N1c1ccc2c(c1)OCO2 (configuration not stated) | 7.1% |
| COc1cccc(C2C(C(=O)Nc3ccccc3)=C(C)N=c3s/c(=C\c4sccc4C)c(=O)n32)c1 (configuration not stated) | 46.7% |
| CC(C)N1CCC(=NNC(=O)c2ccc(C(C)(C)C)cc2)CC1 | -11% |
| CC(C)OC(=O)C1C(=O)CC(C)(O)C(C(=O)OC(C)C)C1c1ccc([N+](=O)[O-])cc1 (configuration not stated) | 3.3% |
| COc1ccc(CCNS(=O)(=O)c2ccc(Cl)cc2)cc1OC | 0.8% |
| COc1cc(C2Nc3ccc4ccccc4c3C3=C2C(=O)CC(C)(C)C3)cc(OC)c1O (configuration not stated) | 4.7% |
| Cc1ccc(OCC(=O)O/N=C(\N)c2cccc([N+](=O)[O-])c2)c(C)c1 | -9.4% |
| CC(C)(C)C1CCc2c(sc(NC(=O)C3CC4CCC3C4)c2C(N)=O)C1 (configuration not stated) | -14.2% |
| COc1cc(/C=N/NC(=O)CN2CCOCC2)c([N+](=O)[O-])cc1OC | -14.3% |
| CC1(C)CC(N2CCC(=O)NC2=S)CC(C)(C)N1 | -7.9% |

| Compound | displacement |
| --- | --- |
| CCc1ccc(NC(=O)C(=O)NCCN2CCN(C(=O)c3ccccc3Br)CC2)cc1 | 10.4% |
| CCOc1cc(OCC)cc(C(=O)Nc2cc([N+](=O)[O-])ccc2Cl)c1 | -4.7% |
| Cc1ccc(NCC(=O)N/N=C\C=C\c2ccco2)cc1 | -0.4% |
| O=C(O)c1ccc(N2Cc3ccccc3C2)cc1 | 14% |
| CCN1C(=O)/C(=C\c2ccc(OCc3ccccc3Cl)cc2)SC1=S | 15.9% |
| CCN(CC)CCN1C(=O)c2ccccc2NC1c1ccc2c(c1)OCO2 (configuration not stated) | 9.2% |
| O=[N+]([O-])c1ccc(S(=O)(=O)N2CCSC2c2ccc3c4c(cccc24)CC3)cc1 (configuration not stated) | 12.8% |
| C=CCCCC(=O)Nc1ccccc1Br | 11.7% |
| CC(=O)OCC12COC(C)(CC1C)CC2C (configuration not stated) | 11.1% |
| O=[N+]([O-])c1ccc2c(c1)S(=O)(=O)NC2=NCc1ccccc1 | 12.6% |
| Cc1ccc([N+](=O)[O-])cc1NC(=O)CN1C(=O)c2ccccc2C1=O | -9.1% |
| O=C1OC(Nc2cccc3ccccc23)(c2ccccc2)c2ccccc21 (configuration not stated) | 3.2% |
| Cc1cccnc1NC(=O)COc1ccc(Br)cc1 | -0.3% |
| O=C(c1cc(-c2ccc(Br)cc2)nc2ccccc12)N1CCCCC1 | -12.9% |
| CC(=O)Nc1ccc(C(=O)Nc2ccc([N+](=O)[O-])cc2)cc1 | 4.7% |
| O=C(Nc1ncccn1)c1ccc([N+](=O)[O-])o1 | 0.3% |
| COCCNC(=S)Nc1ccc(OC)cc1 | 12.1% |
| CCOc1cc(/C=C2\SC(N)=NC2=O)cc(Cl)c1O | -91.3% |
| CCN(CC)c1ccc(NC(=O)c2cccs2)cc1 | -0.9% |
| COc1ccccc1-c1cc(-c2ccc(Br)cc2)nc(=O)[nH]1 | -9% |
| COc1ccc(Br)cc1C(=O)Nc1ccc(F)c([N+](=O)[O-])c1 | 13.4% |
| COc1ccccc1C(=O)Nc1cccc(C(C)=O)c1 | -1% |

| Compound | displacement |
| --- | --- |
| Cc1cc(NNC(=O)C(c2ccccc2)c2ccccc2)c2ccc(C)c(C)c2n1 | -7.4% |
| CCC(Oc1ccccc1)C(=O)Nc1sc(C)c(C)c1C(=O)OC (configuration not stated) | -4.2% |
| COC(=O)CN(c1ccc(OC)cc1)S(C)(=O)=O | 8% |
| COC(=O)c1c(C)oc2ccc(OC(=O)c3ccc(Br)cc3)cc12 | 10.8% |
| COc1ccc(C2Nc3ccccc3C(=O)N2c2ccc(Br)cc2)cc1 (configuration not stated) | 7.2% |
| COc1cc(Cl)c(NC(=O)c2cc3ccccc3cc2O)c(OC)c1 | 8.9% |
| Cc1onc(-c2ccccc2Cl)c1C(=O)NCCc1nc2ccccc2[nH]1 | 2.6% |
| Cc1ccc(N=Cc2c(O)n(-c3ccccc3)c(=O)[nH]c2=O)cc1 | -5.6% |
| CC1(C)CC(=O)C2=C(C1)NC1=C(C(=O)c3ccccc31)C2c1ccc(OC(=O)/C=C/c2ccc([N+](=O)[O-])cc2)cc1 (configuration not stated) | 15.9% |
| C/C(=N\N=C1/NC(=O)C(CC(=O)O)S1)c1ccccc1 (configuration not stated) | 0.5% |
| NC(=O)C1CCN(C(=O)COc2cccc3ccccc23)CC1 | 0.4% |
| O=C1c2ccc(-c3nc4ccccc4c(=O)o3)cc2C(=O)N1c1ccc([N+](=O)[O-])cc1 | -6.6% |
| CN1CN=C2SC3(COC(c4ccccc4Cl)OC3)C(=O)N2C1 (configuration not stated) | -0.1% |
| CCOC(=O)c1cc(C)sc1NC(=O)c1sc2cc(F)ccc2c1Cl | -3.4% |
| COc1cc2nc(-c3cccc(Br)c3)oc(=O)c2cc1OC | 13.1% |
| COc1cccc(CN2CCN(Cc3cc(Br)ccc3O)CC2)c1OC | 5.1% |
| O=C(O)CCC(=O)NCC1(c2ccccc2)CCOCC1 | -3.7% |
| CN(c1ccccc1)c1ccc(/C=C2\N=C(c3ccccc3)OC2=O)cc1 | 3.3% |
| COc1ccc(CC(=O)Nc2cc(NC(=O)Cc3ccc(OC)cc3)cc(C(=O)NC(C)(C)C)c2)cc1 | 13.1% |
| FC(F)(F)c1ccccc1C=NN1CCN(c2ccc(Cl)cc2)CC1 | -0.6% |
| COc1ccc(N(CC(=O)Nc2cccc(Br)c2)S(C)(=O)=O)cc1 | 8.6% |
| N#Cc1c(-c2c3ccccc3cc3ccccc23)[nH]c(=S)[nH]c1=O | 5.2% |

| Compound | displacement |
| --- | --- |
| CCC(C(=O)Nc1ccc(F)cc1F)c1ccccc1 (configuration not stated) | 35% |
| CC(=O)Nc1ccc(C(=O)N2CCN(c3ccccc3)CC2)cc1 | 11.9% |
| O=C(c1ccc(N2CCN(C(=O)c3cccc(F)c3)CC2)cc1)c1cccc(F)c1 | -2.7% |
| O=C(Nc1cccc2ccccc12)c1ccccc1[N+](=O)[O-] | -1.8% |
| O=[N+]([O-])c1cc(C(F)(F)F)ccc1NCCCCNS(=O)(=O)c1ccccc1 | 17% |
| O=C(Nc1nc(-c2ccc(Br)cc2)cs1)c1ccc([N+](=O)[O-])cc1 | 6.5% |
| COC(=O)c1ccc(/C=C2/C(=O)NN(c3ccc(C)cc3)C2=O)cc1 | 19% |
| Cc1ccc(NC(=O)CN(c2ccc(C)c(Cl)c2)S(C)(=O)=O)cc1C | 19.2% |
| CCC(C(=O)N1CCN(Cc2ccccc2)CC1)c1ccccc1 (configuration not stated) | -5.6% |
| COc1ccc(CCN/C(C)=C/c2oc3ccc(O)cc3c2[N+](=O)[O-])cc1OC | -4.9% |
| COC(=O)C1=C(C)N(C)C(C)=C(C(=O)OC)C1c1ccc(Cl)c(Cl)c1 | -0.4% |
| Cc1ccc(N2C(=O)CC(NCC3CCCO3)C2=O)cc1 (configuration not stated) | 4.9% |
| Cc1cc2c(cc1C)N(Cc1ccc(Cl)cc1)C1=NCCCN12 | -2% |
| Nc1sc(=S)nc2sc3c(c12)CCN(Cc1ccccc1)C3 | 74% |
| O=C(COc1ccccc1[N+](=O)[O-])N/N=C/c1ccc(OC(=O)c2cccc(F)c2)cc1 | 4.5% |
| O=C(Nc1cccc(NC(=O)c2ccccc2[N+](=O)[O-])c1)c1ccco1 | 11.9% |
| CCC(=O)Nc1ccc(-c2nc3cc(Cl)ccc3o2)cc1 | 10.4% |
| Cc1ccc(NC2CC(C)N(C(=O)C(C)C)c3ccc(C)cc32)cc1 (configuration not stated) | 4.2% |
| COc1ccc(N=C(Sc2nc3ccccc3s2)c2ccc([N+](=O)[O-])cc2[N+](=O)[O-])cc1 | 3.9% |
| COc1ccc(CC(=O)N2CCN(c3ccc(F)cc3)CC2)cc1OC | -3.8% |
| CCOc1ccc(C(=O)Nc2ccc(Cl)cn2)cc1[N+](=O)[O-] | 14.4% |
| COc1ccc(C2CC(O)(C#Cc3ccccc3)C(C)C(c3ccc(OC)cc3)N2)cc1 (configuration not stated) | -10% |

| Compound | displacement |
| --- | --- |
| CC(=O)Nc1ccc(S(=O)(=O)NNc2ccccc2)cc1 | -7.4% |
| Cc1onc(-c2ccccc2)c1C(=O)Nc1cccc(Oc2ccccc2)c1 | -4.2% |
| COc1cc(C2CC(=O)Nc3c2ccc2ccccc32)cc(OC)c1OC(C)=O (configuration not stated) | -9.1% |
| COc1ccccc1NC(=O)/C(=C\c1cccs1)NC(=O)c1ccccc1 | 11.6% |
| CCOC(=O)C1=C(C)N=c2s/c(=C/c3cc(Br)cc(OC)c3O)c(=O)n2C1c1cccs1 (configuration not stated) | 9.2% |
| Cc1ccc(CN2CCN(N=Cc3cccc([N+](=O)[O-])c3)CC2)c(C)c1 | 9.2% |
| Cc1ccc(Nc2cc(N3CCCCC3)c(N)c3c2C(=O)c2ccccc2C3=O)cc1 | 6.3% |
| COCCCNC(=O)CN(c1ccc(OC)cc1OC)S(C)(=O)=O | -7.9% |
| COc1ccc(S(=O)(=O)n2cnc(C)c2)cc1 | 14.9% |
| CC(C)(C)c1ccc(-c2nnc(N)s2)cc1 | -11.5% |
| CCOC(=O)c1ccccc1NC(=O)c1cccc([N+](=O)[O-])c1 | 15% |
| Cc1cccc(C(=O)Nc2ccc(OC(F)(F)F)cc2)c1 | 14.3% |
| Fc1cccc(Nc2cc(-n3cccn3)ncn2)c1 | -10.3% |
| Cc1ccc(S(=O)(=O)NC(C)C2C3CC4CC(C3)CC2C4)cc1 (configuration not stated) | 6.9% |
| NS(=O)(=O)c1cccc(NC(=O)c2ccccc2I)c1 | 4.5% |
| CCOc1ccc(-c2cc(C(=O)O)c3ccccc3n2)c(OCC)c1 | -5.8% |
| COc1ccc(-c2ccc(C3NC(=O)c4c(sc5c4CCN(C)C5)N3)o2)cc1Cl (configuration not stated) | 4.1% |
| O=c1[nH]nc(SCc2c(F)cccc2Cl)c(=O)[nH]1 | -11% |
| CCOC(=O)c1ccc2[nH]cc(C(=O)OCC)c(=O)c2c1 | 1.6% |
